Experimental data: PubChem BioAssay AID488969 (Vanderbilt High Throughput Screening Facility, 2010)
The full ranking holds about 110,000 compounds; the median of “z-score” is about -0.1, and the highest 2% start at about 2. Some of the results follow.

Molecular target: Metabotropic glutamate receptor 8 (Rattus norvegicus) (UniProt P70579)
Assay: rat mGluR8 modulators via GIRK flux, primary screen, cell-based, thallium flux, HTS (AID 488969)
Settings: HEK293 rat mGluR8, GIRK (G protein-gated inwardly rectifying potassium channel) thallium flux, FluoZin2; at 10 µM; stronger effect = higher value; submaximal glutamate (EC20) added with thallium

UniProt P70579, sequence (P70579 whole entry, looked up): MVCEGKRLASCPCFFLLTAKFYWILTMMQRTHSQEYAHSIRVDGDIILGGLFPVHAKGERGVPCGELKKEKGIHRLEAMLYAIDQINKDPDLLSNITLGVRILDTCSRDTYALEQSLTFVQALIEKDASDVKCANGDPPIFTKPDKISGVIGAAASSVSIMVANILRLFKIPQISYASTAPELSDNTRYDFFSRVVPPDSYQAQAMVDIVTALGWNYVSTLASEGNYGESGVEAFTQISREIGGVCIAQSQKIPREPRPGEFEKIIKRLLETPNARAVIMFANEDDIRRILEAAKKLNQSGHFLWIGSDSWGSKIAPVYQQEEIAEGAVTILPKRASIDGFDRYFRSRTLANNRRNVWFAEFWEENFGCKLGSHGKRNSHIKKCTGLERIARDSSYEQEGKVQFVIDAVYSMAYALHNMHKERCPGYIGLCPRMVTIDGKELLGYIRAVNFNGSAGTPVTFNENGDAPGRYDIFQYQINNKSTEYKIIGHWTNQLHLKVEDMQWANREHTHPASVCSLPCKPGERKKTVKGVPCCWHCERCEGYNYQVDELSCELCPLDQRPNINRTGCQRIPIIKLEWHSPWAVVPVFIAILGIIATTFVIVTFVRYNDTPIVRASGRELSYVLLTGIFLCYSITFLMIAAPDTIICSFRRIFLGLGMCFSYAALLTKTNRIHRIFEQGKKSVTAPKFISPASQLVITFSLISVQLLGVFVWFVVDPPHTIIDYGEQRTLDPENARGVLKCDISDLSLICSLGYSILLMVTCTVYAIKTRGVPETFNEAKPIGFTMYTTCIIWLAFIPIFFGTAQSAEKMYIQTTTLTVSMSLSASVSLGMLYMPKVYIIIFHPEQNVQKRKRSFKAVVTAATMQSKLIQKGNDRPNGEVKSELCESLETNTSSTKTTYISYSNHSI

Structure (SMILES)	z-score
CCN(CC)S(=O)(=O)c1ccc(NC(=O)CCC2CCCCC2)cc1	-0.664
CC1CCN(c2c(NCC3CCC(C(=O)N4CCc5ccccc5C4)CC3)c(=O)c2=O)CC1 (stereo unspecified)	1.82
CC(C)(C)c1cc2cccnc2n1Cc1ccccc1	1.05
Cc1ccc2[nH]cc(C(=O)CN3CCC4(CC3)OCCO4)c2c1	0.75
COc1ccccc1CCNC(=O)CSc1nc(-c2ccco2)cc(C(F)(F)F)n1	0.158
O=[N+]([O-])c1ccccc1/C=N/n1c(COc2ccccc2)n[nH]c1=S	0.0224
Nc1cc2ccccc2oc1=O	-0.206
COc1ccc(NS(=O)(=O)c2cc(NC(=O)c3cnc(C)cn3)ccc2N2CCCCC2)cc1	-0.33
O=C(NCCN1CCOCC1)c1cnn2c(-c3ccccc3)cc(-c3ccccc3)nc12	-0.617
O=C(COc1ccc(S(=O)(=O)NC2CCCCC2)cc1)NCC1CCCO1 (stereo unspecified)	-0.128
COc1cccc(NC(=S)NCCC(c2ccccc2)c2ccccc2)c1	0.259
CCOC(=O)C1=C(CC)Nc2ccccc2N=C1NC(=O)Nc1ccccc1OC	0.249
Cc1[nH]c(=O)c(C(=O)/C=C/c2ccccc2F)c2c1CCCC2	-0.788
COc1cc(C)c(CNc2cc(C)cc(C)c2)cc1C	-0.229
COc1ccc(OC)c(-c2cc(C(=O)NCc3cccs3)no2)c1	-0.449
Cc1c2c(n3c(nc4ccccc43)c1C#N)N(Cc1cccnc1)CC2	-2.28
COc1cc(/C=N/NC(=O)CNc2n[nH]c(=O)[nH]c2=O)ccc1O	0.134
COc1ccc(NC(=O)C(c2cc3c(cc2[N+](=O)[O-])OCO3)N(C)Cc2ccccc2)cc1 (stereo unspecified)	-0.0902
COc1ccc(CCN2C(=O)CC(N3CCOCC3)C2=O)cc1OC (stereo unspecified)	-0.187
CCn1cc(C(=O)OCc2ccc(F)cc2)c(=O)c2ccc(C)nc21	-0.684
O=C(CCl)Nc1ccccc1Sc1ccc(Cl)cc1	-0.191
CC12c3ccccc3C(c3ccccc31)C1C(=O)N(Cc3cccnc3)C(=O)[C@H]12 (stereo partly specified)	0.0392
O=S(=O)(NCC1CCCO1)c1cc(Cl)ccc1Cl (stereo unspecified)	-0.0137
CC1C/C(=N/N=C2/NC(=O)CS2)CC(C)(C)C1 (stereo unspecified)	-0.18

Structure (SMILES)	z-score
CCOc1ccc(Br)cc1S(=O)(=O)Nc1ccccc1N1CCOCC1	0.121
Nc1ncnc(Nc2cccc(C(F)(F)F)c2)n1	0.115
COC(=O)c1ccc(NC(=O)CSC2=NC(=O)C(c3ccccc3)C(=O)N2)cc1 (stereo unspecified)	-0.751
Cc1ccc(NC(=O)c2cncc(Br)c2)c([N+](=O)[O-])c1	0.0419
CC1=N/C(=C\c2ccc3c(c2)OCO3)C(=O)N1c1ccc(C(=O)O)cc1	-0.2
CCOc1ccccc1OCC(=O)NC1CCCCC1	-0.557
CN(C)CCCn1c(NC(=O)C2CCCCC2)nc2ccccc21	0.184
COc1ccc2c(CC(=O)Nc3nnc(C4CC4)s3)coc2c1	-0.329
O=C(NCc1ccncc1)C(=O)NCC(c1ccccc1)c1ccccc1	-1.76
Clc1cccc(C[n+]2cc(-c3ccccc3)n3c2CCC3)c1	-0.151
C/C(=C/C(=O)NCc1ccccc1)C(=O)O	0.149
Cc1nc2cc(-c3ccsc3-n3c(C)ccc3C)[nH]n2c(=O)c1Cl	1.43
O=S(=O)(Nc1nccs1)c1ccc2c(c1)OCCO2	0.327
Cn1c(=O)c2c(nc(SCC(=O)N3c4ccccc4CCc4ccccc43)n2C)n(C)c1=O	-0.239
CC(C)CC[n+]1ccn(-c2nc3ccccc3nc2[N-]S(=O)(=O)c2ccccc2)c1	-0.323
Cc1csc(NC(=O)CCn2c(=O)oc3ccccc32)n1	0.0239
CCC(=O)Nc1nc2ccccc2n1Cc1ccccc1C	-0.561
O=C(/C=C/c1cccs1)N1CCN(c2ccccc2F)CC1	0.0251
CSc1nc(N2CCOCC2)c2c3c(sc2n1)CCC3	-1.18
O=c1c2ccccc2n(Cc2cccc(F)c2)c(=O)n1C1CCCC1	-1
Cc1[nH]n(-c2cccc(Cl)c2)c(=O)c1-c1ccccc1	0.13
Cc1ccccc1S(=O)(=O)c1c(C)cc(-c2ccccc2)[nH]c1=O	-0.0464
O=C(COC(=O)c1cc2c(s1)CCCC2)NCc1ccccc1Cl	-0.272
COC(=O)c1c(N2C(=O)[C@H]3[C@@H](C2=O)[C@]2(C(=O)Nc4c(C)cccc42)N2CCC[C@@H]32)sc(C)c1C	-0.136

Structure (SMILES)	z-score
CCOc1cc(C(N)=O)cc(OCC)c1OCC	-0.232
Cc1ccc(-c2nc3ccccc3s2)cc1NC(=S)NC(=O)c1ccccc1	0.744
CC(NC(=O)c1nn(C)c(=O)c2ccccc12)c1ccc(F)cc1 (stereo unspecified)	-0.0748
COc1ccc(C(C(=O)NC2CCCC2)N(Cc2ccc(C)cc2)C(=O)c2ccn[nH]2)cc1OC (stereo unspecified)	-0.0852
CCOC(=O)N/N=C(C)/C=C/c1ccccc1	0.121
Cc1ccc2nc(NC(=O)CSCC(=O)OCC(=O)c3ccc(Br)cc3)sc2c1	-0.123
Cc1coc2cc3oc(=O)cc(C)c3cc12	0.0366
O=C(NCC(c1cccnc1)N1CCOCC1)C1CCCCC1 (stereo unspecified)	0.409
COC(=O)[C@H](CCSC)NC(=O)NCc1ccc(S(N)(=O)=O)cc1	-0.181
O=C(CSc1nnc(-c2cccnc2)n1Cc1ccco1)c1ccc(Cl)cc1	-0.222
Cc1cc(CNC(=O)c2cc(Br)ccc2Cl)nn1C	0.233
COC(=O)c1ccc(-c2n[nH]c(=O)c3ccccc23)cc1	-0.383
O=C(NCCc1c[nH]c2ccccc12)c1cccnc1	-0.104
COc1ccc(C2C(C(=O)NCCN(C)C)c3ccccc3C(=O)N2C)cc1OC (stereo unspecified)	0.322
O=C(NCCc1cccc(Cl)c1)c1cccnc1	-0.413
O=C(Nc1cccc(Cl)c1)c1ccc(F)c(S(=O)(=O)NCc2cccs2)c1	1.5
O=c1c(=NNc2ccccc2Cl)c(=O)c2ccccc12	-0.28
Cc1ccc(-c2noc(CN3CCN(c4ccccc4F)CC3)n2)cc1	-0.0322
COc1ccc(C2CC(c3cccs3)=NN2C(=O)CSc2nc3ccccc3o2)cc1 (stereo unspecified)	-0.84
O=C(CCc1nc2ccccc2[nH]c1=O)OCc1ccc(S(=O)(=O)N2CCOCC2)cc1	-0.269
Cc1ccc(NC(=O)CN(C)S(=O)(=O)c2cccs2)cc1F	1.63
O=S(=O)(NCc1cc(-c2ccc(Cl)cc2)no1)c1ccc(Cl)cc1	0.0786
Cc1c(C(=O)N2CCc3ccccc32)oc2c1C(=O)CC(C)(C)C2	-0.627
